Source: article PMC4336329 (PLoS ONE, 2015)
The whole screen tested about 310,000 compounds, of which about 2,200 (0.71%) showed an effect of 50% or more. Effects have a minus sign here. Some of the results follow.

The compounds below were run against human ether-à-go-go-related gene (hERG) potassium channel (human, UniProt Q12809) (assay: primary screen, population patch clamp on CHO cells stably expressing hERG).
human ether-à-go-go-related gene (hERG) potassium channel, sequence (Q12809 whole entry, looked up): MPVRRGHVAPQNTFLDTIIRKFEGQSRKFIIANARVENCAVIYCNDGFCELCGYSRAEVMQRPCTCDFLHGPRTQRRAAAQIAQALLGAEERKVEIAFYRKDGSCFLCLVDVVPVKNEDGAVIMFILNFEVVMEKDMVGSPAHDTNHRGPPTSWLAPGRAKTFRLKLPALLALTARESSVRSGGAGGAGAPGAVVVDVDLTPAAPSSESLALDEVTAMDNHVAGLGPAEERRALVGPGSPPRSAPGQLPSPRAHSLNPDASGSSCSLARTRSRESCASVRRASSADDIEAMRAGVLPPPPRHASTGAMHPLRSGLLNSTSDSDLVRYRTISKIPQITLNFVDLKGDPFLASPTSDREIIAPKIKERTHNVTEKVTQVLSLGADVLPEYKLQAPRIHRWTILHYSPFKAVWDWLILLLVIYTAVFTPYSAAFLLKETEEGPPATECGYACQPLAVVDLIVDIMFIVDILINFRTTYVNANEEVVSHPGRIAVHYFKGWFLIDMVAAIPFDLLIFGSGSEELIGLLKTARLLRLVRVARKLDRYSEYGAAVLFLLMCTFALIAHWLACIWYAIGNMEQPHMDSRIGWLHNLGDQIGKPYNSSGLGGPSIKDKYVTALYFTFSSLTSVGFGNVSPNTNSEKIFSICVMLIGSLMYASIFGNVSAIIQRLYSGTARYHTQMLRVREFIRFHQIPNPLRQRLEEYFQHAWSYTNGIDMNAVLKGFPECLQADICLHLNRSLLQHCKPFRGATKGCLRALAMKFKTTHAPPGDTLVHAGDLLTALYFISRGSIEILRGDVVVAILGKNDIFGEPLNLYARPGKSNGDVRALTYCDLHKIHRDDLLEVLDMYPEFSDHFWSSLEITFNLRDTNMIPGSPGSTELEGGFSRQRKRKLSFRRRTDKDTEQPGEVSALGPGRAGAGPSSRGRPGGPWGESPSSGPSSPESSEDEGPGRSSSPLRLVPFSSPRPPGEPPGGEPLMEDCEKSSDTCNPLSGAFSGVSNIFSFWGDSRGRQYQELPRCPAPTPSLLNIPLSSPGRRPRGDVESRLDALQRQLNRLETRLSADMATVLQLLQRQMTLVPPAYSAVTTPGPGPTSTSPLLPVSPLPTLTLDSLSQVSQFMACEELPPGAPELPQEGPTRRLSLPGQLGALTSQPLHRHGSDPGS

Row | SMILES | hERG current change (%, negative = inhibition) at 1uM
1 | COc1cccc(-c2nn(-c3ccccc3)cc2CN(C)Cc2ccon2)c1 | 11.3%
2 | COc1ccc(CN(C(=O)c2ccco2)C2CCS(=O)(=O)C2)cc1 (stereo not shown) | 5.25%
3 | CN(C)CCNc1nc(-c2ccccc2)nnc1C(F)(F)F | 4.22%
4 | CCOC1OC(=O)C(Cl)=C1Nc1ccc(C)cc1 (stereo not shown) | 9.29%
5 | CCOC(=O)c1c[nH]c2nc(C)ccc2c1=O | 19.6%
6 | Cn1c(=O)n(C)c2cc([N+](=O)[O-])c(N3CCN(C(=O)c4ccccc4Cl)CC3)cc21 | 5.19%
7 | CC(c1ccccc1)C1CC(=O)N(C2CCCCC2)C1=O (stereo not shown) | 2.3%
8 | Cc1nc2ccccn2c1P(=S)(N1CCCCC1)N1CCCCC1 | 9.33%
9 | Cc1c(N(C)S(=O)(=O)c2cc(C(=O)N3CCCC3)ccc2Cl)c(=O)n(-c2ccccc2)n1C | 8.15%
10 | C=CCOC(=O)COc1ccc2c(C)c(CC)c(=O)oc2c1 | 10.2%
11 | COc1ccc(CCC(=O)N(C)CC(=O)Nc2ccc(N3CCOCC3)cc2)cc1 | -2.03%
12 | OCC[C@@H]1C[C@H](O)[C@@H](O)[C@]2(CCCO2)O1 | 19.7%
13 | OCc1ccccc1N=c1ssnc1Cl | 17%
14 | Cc1ccc(C(=O)c2ccc([N+](=O)[O-])cc2)c(C)c1 | 12.9%
15 | O=[N+]([O-])c1cccnc1-n1cnc2ccccc21 | 5.48%
16 | COc1ccc(N(CC(=O)Nc2ccc(F)c(Cl)c2)S(=O)(=O)c2c(C)noc2C)cc1 | -14.7%
17 | Cc1ccc2c(-c3ccc([N+](=O)[O-])cc3)cc(=O)[nH]c2c1 | 3.26%
18 | O=C(c1ccccc1O)N1N=C(C(F)(F)F)CC1(O)c1ccc([N+](=O)[O-])cc1 (stereo not shown) | -4.67%
19 | CCN(Cc1ccccc1)C(=O)c1oc2ccc(S(=O)(=O)N3CCOCC3)cc2c1C | 11.3%
20 | CCN(CC)CCN1C(=O)C(=O)/C(=C(/O)c2ccc(S(=O)(=O)N3CCOCC3)cc2)C1c1ccccc1 (stereo not shown) | 15.3%
21 | O=S(=O)(c1ccccc1Br)N1CCC(O)(c2cccnc2)CC1 | 7.25%
22 | O=C(Cn1nc(-c2ccccc2)c2ccccc2c1=O)Nc1ccc2c(c1)nc1n2CCOC1 | 13.3%
23 | CCC(=O)Nc1nc2c(s1)COc1ccccc1-2 | 12.5%
24 | CCCc1ccc(-c2ccc(/C=C/C(=O)O)cc2)nc1 | 4.8%
25 | Cc1ccc(S(C)(=O)=O)cc1C(=O)Nc1cccc(S(=O)(=O)N2CCCCCC2)c1 | -33.5%
26 | CC(C)CC(=O)N(c1ccc(F)cc1)C1C=CS(=O)(=O)C1 (stereo not shown) | 13%
27 | Cc1ccc(C(O)(C(=O)NNc2ccc3ccccc3[nH+]2)c2ccc(C)cc2)cc1.[Cl-] | 12.6%
28 | COc1cc(Cl)c(NC2=CC(=O)C(=O)c3ccccc32)c(OC)c1 | 9.17%

Row | SMILES | hERG current change (%, negative = inhibition) at 1uM
29 | COC(=O)c1c(C)n(Cc2ccc3c(c2)OCO3)c2ccc(O)cc12 | 9.99%
30 | Cc1ccc(CCNC(=O)CCn2ccc3cc(S(=O)(=O)N4CCCC4)ccc32)cc1 | 8.83%
31 | CC(=O)NNC(=O)CSc1nnc(-c2ccccc2)c(-c2ccccc2)n1 | 15.6%
32 | CCN(CC)S(=O)(=O)c1ccc(N2CC(C(=O)NC3(C)CCS(=O)(=O)C3)CC2=O)cc1 (stereo not shown) | 15.9%
33 | COc1ccccc1C1NC=C([N+](=O)[O-])C=C1[N+](=O)[O-] (stereo not shown) | 6%
34 | Cc1nnc(SCCn2c(N(C)Cc3ccccc3)nc3c2c(=O)[nH]c(=O)n3C)s1 | -8.84%
35 | COc1ccc(CNC(=O)COC(=O)C2CC3C=CC2C3)cc1 (stereo not shown) | 11.8%
36 | CC(=NCCCn1ccnc1)c1c(O)n(-c2ccccc2)c(=O)[nH]c1=O | 12.1%
37 | C/C(=N\NC(=O)CN1CCOCC1)C(C)(C)C | 19.8%
38 | CCC(=O)c1ccc(OCCSc2ncccn2)cc1 | 0.665%
39 | COc1ccc(C(C(=O)NCc2ccccc2)N(Cc2ccc3c(c2)OCO3)C(=O)c2cnccn2)cc1 (stereo not shown) | -3.41%
40 | C=CCCOc1ccccc1C(N)=O | 17.2%
41 | Cc1cc(C(=O)COc2ccccc2Cl)c(C)n1-c1ccc2c(c1)OCO2 | 19%
42 | Cc1ccc(NC(=O)Nc2c(C)n(C)n(-c3ccccc3)c2=O)cc1C | 10.2%
43 | CCCNC1=C(C)C(=O)C2=C(C1=O)C(COC(N)=O)[C@]1(OC)C3NC3CN21 (stereo partly shown) | 10.1%
44 | COc1ccc(NC(=O)CN2C(=O)CSC(C)C2=O)c(OC)c1 (stereo not shown) | 7.04%
45 | O=C(CSc1nnc(NC2CCCCC2)s1)Nc1ccc(N2CCOCC2)cc1 | 1.16%
46 | Br.CC[N+](CC)(CC)C/C=C/CN1CCCCC1.[Br-] | -0.121%
47 | NC(=O)c1ccc(NC(=O)CN2CCN(c3ccc(Cl)cc3)CC2)cc1 | -27.2%
48 | COc1cccc(-n2c(COc3ccccc3C)nnc2SCC(=O)O)c1 | 4.51%
49 | COc1ccc(CCN(C)C(=O)C2CCN(Cc3ccccc3)CC2)cc1OC.O=C(O)C(=O)O | 7.22%
50 | O=C(COC(=O)c1ccccc1Oc1ccccc1)NC1CCS(=O)(=O)C1 (stereo not shown) | 12.8%
51 | CC(OC(=O)c1ccc(Cl)cc1)C(=O)NCc1ccc2c(c1)OCO2 (stereo not shown) | 1.95%
52 | CN(C)Cc1cccc([N+](=O)[O-])c1O | 13.5%
53 | Cc1[nH][nH]c(=O)c1C(c1cc2c(cc1Br)OCO2)c1c(C)[nH][nH]c1=O | 16.6%
54 | CCC(CC)NC(=O)COC(=O)c1ccc2c(c1)C(=O)N(Cc1ccco1)C2=O | 16.5%
55 | COc1ccc(C(CNc2ccc(S(=O)(=O)N3CCCC3)cc2[N+](=O)[O-])N2CCCC2)cc1 (stereo not shown) | 20%
